# This is one part of the list.
# Test system: S. aureus RN4220
# Test: growth inhibition call (relative growth <= 0.2)
# Conditions: 50 µM
row,SMILES,growth inhibition call
1,COc1ccc(CN(C)C[C@H]2OCCCC[C@H](C)Oc3ccc(NC(=O)NC4CCCCC4)cc3C(=O)N([C@H](C)CO)C[C@@H]2C)cc1,inactive
2,CCN(CC)c1nc(C#N)nc(OC)n1,inactive
3,COC(=O)c1c(N)c(C#N)c2n1CCC2,inactive
4,Cn1cnc(CCNC(=O)C[C@@H]2CC[C@@H]3[C@H](COC[C@H](O)CN3C(=O)Nc3ccc(Cl)cc3)O2)c1,inactive
5,COC(=O)C[C@H]1C=C[C@H](N)[C@H](CO)O1,inactive
6,COc1ccc(CCNC(=O)[C@@]2(Cc3ccccc3I)c3ccccc3C(=O)N(C3CCCCC3)[C@H]2c2ccc(CO)cc2)cc1,inactive
7,C[C@H](CO)N1C[C@H](C)[C@H](CN(C)Cc2ccc3c(c2)OCO3)Oc2ccc(NS(=O)(=O)c3ccccc3)cc2CC1=O,inactive
8,Cc1noc(C)c1S(=O)(=O)N(C)C[C@@H]1OCc2cn(nn2)CCCC(=O)N([C@@H](C)CO)C[C@@H]1C,inactive
9,OCCC1CCOCC1,inactive
10,Cc1noc(C)c1NC(=O)Nc1ccc2c(c1)C(=O)N([C@@H](C)CO)C[C@@H](C)[C@@H](CN(C)Cc1ccc(Cl)c(Cl)c1)O2,inactive
11,CC=Cc1ccc2n(c1=O)C[C@H]1[C@H](CO)[C@@H](C(=O)NCCc3cn(C)cn3)N(C(=O)CC)[C@@H]21,inactive
12,COc1ccc(CN(C)C[C@H]2OCCCC[C@H](C)Oc3ccc(NC(=O)Nc4cccc5ccccc45)cc3C(=O)N([C@H](C)CO)C[C@@H]2C)cc1,inactive
13,CN(Cc1cnc2nc(N)nc(N)c2n1)c1ccc(C(=O)NC(CCC(=O)O)C(=O)O)cc1.O (centres undefined),inactive
14,CC(C)[Si](C#CCCCC#N)(O[C@H](c1ccccc1)c1cn(Cc2cccc(Cl)c2)nn1)C(C)C,active
15,COC(=O)C1=C(C)NC(C)=C(C(=O)OCC(C)C)[C@@H]1c1ccccc1[N+](=O)[O-],inactive
16,Cc1noc(C)c1S(=O)(=O)Nc1ccc2c(c1)C(=O)N([C@@H](C)CO)C[C@H](C)[C@@H](CN(C)S(C)(=O)=O)O2,inactive
17,Nc1ncn([C@@H]2O[C@H](CO)[C@@H](O)[C@H]2O)c(=O)n1,inactive
18,Cc1noc(C)c1S(=O)(=O)Nc1ccc2c(c1)C(=O)N([C@H](C)CO)C[C@H](C)[C@H](CN(C)S(=O)(=O)c1cn(C)cn1)OCCCC[C@H](C)O2,inactive
19,COc1ccc(CN(C)C[C@H]2Oc3c(NS(C)(=O)=O)cccc3C(=O)N([C@@H](C)CO)C[C@H]2C)cc1,inactive
20,CNc1ncnc(Cl)c1N,inactive
21,CCOC(=O)[C@H](Cc1ccccc1)NC(=O)c1cc(Cl)c(OCCN2CCN(C)CC2)c(Cl)c1O,inactive
22,CC(C)NCCCn1c(Sc2cc3c(cc2I)OCO3)nc2c(N)ncnc21,inactive
23,C[C@@H]1CCCCO[C@@H](CN(C)S(=O)(=O)c2ccccc2)[C@@H](C)CN([C@@H](C)CO)C(=O)c2cc(NC(=O)C3CCCCC3)ccc2O1,inactive
24,C[C@@H]1CN([C@@H](C)CO)C(=O)c2c(c3ccccc3n2C)-c2ccccc2CO[C@@H]1CN(C)C(=O)c1cc(Cl)cc(Cl)c1,inactive
25,COc1ccc(S(=O)(=O)N(C)C[C@H]2Oc3c(NC(=O)c4cnccn4)cccc3C(=O)N([C@@H](C)CO)C[C@H]2C)cc1,inactive
26,Cc1ccc(S(=O)(=O)Nc2ccc3c(c2)C(=O)N([C@H](C)CO)C[C@H](C)[C@@H](CN(C)C(=O)Nc2ccc(C(F)(F)F)cc2)O3)cc1,inactive
27,C[C@H](CO)N1C[C@H](C)[C@@H](CN(C)S(C)(=O)=O)Oc2ccc(NS(=O)(=O)c3ccc(Cl)cc3)cc2C1=O,inactive
28,C[C@@H]1CCCCO[C@H](CN(C)C(=O)NC2CCCCC2)[C@@H](C)CN([C@H](C)CO)C(=O)c2cc(NC(=O)Cc3ccccc3)ccc2O1,inactive
29,C[C@@H]1CCCCO[C@@H](CN(C)S(=O)(=O)c2ccc(Cl)cc2)[C@@H](C)CN([C@H](C)CO)C(=O)c2cc(NC(=O)CCC(F)(F)F)ccc2O1,inactive
